# Publication PMC9911399, “Two distinct binding modes provide the RNA-binding protein RbFox with extraordinary sequence specificity”
# Substitutions are numbered along the chain they refer to; changes in the protein carry UniProt numbers. The list shows a part of the results.
# B1: CAGAUUA (DNA:RNA)
# RNA: GGGAGACCGGAAUUCAGAUUGUCCCAGAUUAUUAAAUCCCGUCGUAGCCACCA
# DNA 1: CAATCTGAATTCCGGTCTCCC
# DNA 2: TGGTGGCTACGACGGGATT
# B2: AGUCCGA (DNA:RNA)
# RNA: B1 RNA with C25A, A26G, G27U, A28C, U29C, U30G
# DNA 1: CAATCTGAATTCCGGTCTCCC
# DNA 2: TGGTGGCTACGACGGGATT
# B3: GGGCCCA (DNA:RNA)
# RNA: B1 RNA with C25G, A26G, A28C, U29C, U30C
# DNA 1: CAATCTGAATTCCGGTCTCCC
# DNA 2: TGGTGGCTACGACGGGATT
# B4: UCAAGAC (DNA:RNA)
# RNA: B1 RNA with C25U, A26C, G27A, U29G, U30A, A31C
# DNA 1: CAATCTGAATTCCGGTCTCCC
# DNA 2: TGGTGGCTACGACGGGATT
# B5: CUUUCUG (DNA:RNA)
# RNA: B1 RNA with A26U, G27U, A28U, U29C, A31G
# DNA 1: CAATCTGAATTCCGGTCTCCC
# DNA 2: TGGTGGCTACGACGGGATT
# B6: UAUGAGG (DNA:RNA)
# RNA: B1 RNA with C25U, G27U, A28G, U29A, U30G, A31G
# DNA 1: CAATCTGAATTCCGGTCTCCC
# DNA 2: TGGTGGCTACGACGGGATT
# B7: GUCUACA (DNA:RNA)
# RNA: B1 RNA with C25G, A26U, G27C, A28U, U29A, U30C
# DNA 1: CAATCTGAATTCCGGTCTCCC
# DNA 2: TGGTGGCTACGACGGGATT
# B8: CAAAUUC (DNA:RNA)
# RNA: B1 RNA with G27A, A31C
# DNA 1: CAATCTGAATTCCGGTCTCCC
# DNA 2: TGGTGGCTACGACGGGATT
# B9: CAUAACC (DNA:RNA)
# RNA: B1 RNA with G27U, U29A, U30C, A31C
# DNA 1: CAATCTGAATTCCGGTCTCCC
# DNA 2: TGGTGGCTACGACGGGATT
# B10: CCAUCUU (DNA:RNA)
# RNA: B1 RNA with A26C, G27A, A28U, U29C, A31U
# DNA 1: CAATCTGAATTCCGGTCTCCC
# DNA 2: TGGTGGCTACGACGGGATT
# B11: GAUGGGA (DNA:RNA)
# RNA: B1 RNA with C25G, G27U, A28G, U29G, U30G
# DNA 1: CAATCTGAATTCCGGTCTCCC
# DNA 2: TGGTGGCTACGACGGGATT
# B12: CACUUUG (DNA:RNA)
# RNA: B1 RNA with G27C, A28U, A31G
# DNA 1: CAATCTGAATTCCGGTCTCCC
# DNA 2: TGGTGGCTACGACGGGATT
# B13: GGGAUGA (DNA:RNA)
# RNA: B1 RNA with C25G, A26G, U30G
# DNA 1: CAATCTGAATTCCGGTCTCCC
# DNA 2: TGGTGGCTACGACGGGATT
# B14: AUUGCAC (DNA:RNA)
# RNA: GGGAGACCGGAAUUCAGAUUGUCCAUUGCACUUAAAUCCCGUCGUAGCCACCA
# DNA 1: CAATCTGAATTCCGGTCTCCC
# DNA 2: TGGTGGCTACGACGGGATT
# B15: CACUAAA (DNA:RNA)
# RNA: B1 RNA with G27C, A28U, U29A, U30A
# DNA 1: CAATCTGAATTCCGGTCTCCC
# DNA 2: TGGTGGCTACGACGGGATT
# B16: GGACCUG (DNA:RNA)
# RNA: B14 RNA with A25G, U26G, U27A, G28C, A30U, C31G
# DNA 1: CAATCTGAATTCCGGTCTCCC
# DNA 2: TGGTGGCTACGACGGGATT
# B17: UGCGUGG (DNA:RNA)
# RNA: B14 RNA with A25U, U26G, U27C, C29U, A30G, C31G
# DNA 1: CAATCTGAATTCCGGTCTCCC
# DNA 2: TGGTGGCTACGACGGGATT
# B18: ACGUAUG (DNA:RNA)
# RNA: B1 RNA with C25A, A26C, A28U, U29A, A31G
# DNA 1: CAATCTGAATTCCGGTCTCCC
# DNA 2: TGGTGGCTACGACGGGATT
# B19: CGAGUGG (DNA:RNA)
# RNA: B1 RNA with A26G, G27A, A28G, U30G, A31G
# DNA 1: CAATCTGAATTCCGGTCTCCC
# DNA 2: TGGTGGCTACGACGGGATT
# B20: GGCUACA (DNA:RNA)
# RNA: B1 RNA with C25G, A26G, G27C, A28U, U29A, U30C
# DNA 1: CAATCTGAATTCCGGTCTCCC
# DNA 2: TGGTGGCTACGACGGGATT
# Molecular target: T1, RBFOX1 RRM RbFoxmut (Fox-RRM*) (Homo sapiens, UniProt Q9NWB1 109-208, R118D;E147R;N151S;E152T)
# T1 sequence: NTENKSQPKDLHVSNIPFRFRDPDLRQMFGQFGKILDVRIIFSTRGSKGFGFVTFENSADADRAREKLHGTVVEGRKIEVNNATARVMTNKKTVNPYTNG
# Test: EMSA; HiTS-Eq, 1 nM pool, 10 min; buffer printed only for the single-RNA assays: 10 mM Tris pH 7.5, 150 mM NaCl, 3.4 mM EDTA, 0.001% NP-40, 30 C
# Details: tags: His6 N-terminal (pET28a); label: 5' 32P
# Outline: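 These values rest on relative association constants, computed from read-count changes of each RNA species versus the control reaction and normalised to the cognate motif. Reads came from free RNA recovered by 8% native PAGE after purified RbFox RRM (wild type or mutant) at increasing concentrations was equilibrated for 10 min in 50 µL with 1 nM of a 5′-radiolabelled pool with 7 randomized nucleotides and DNA-annealed flanks.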
row,Binder,binding signal
1,B1,0.141 KA relative to UGCAUGU
2,B2,0.0994 KA relative to UGCAUGU
3,B3,0.0935 KA relative to UGCAUGU
4,B4,0.0628 KA relative to UGCAUGU
5,B5,0.0626 KA relative to UGCAUGU
6,B6,0.102 KA relative to UGCAUGU
7,B7,0.0959 KA relative to UGCAUGU
8,B8,0.0761 KA relative to UGCAUGU
9,B9,0.106 KA relative to UGCAUGU
10,B10,0.0865 KA relative to UGCAUGU
11,B11,0.104 KA relative to UGCAUGU
12,B12,0.135 KA relative to UGCAUGU
13,B13,0.267 KA relative to UGCAUGU
14,B14,0.0917 KA relative to UGCAUGU
15,B15,0.103 KA relative to UGCAUGU
16,B16,0.132 KA relative to UGCAUGU
17,B17,0.138 KA relative to UGCAUGU
18,B18,0.385 KA relative to UGCAUGU
19,B19,0.0605 KA relative to UGCAUGU
20,B20,0.0753 KA relative to UGCAUGU
